Measurements reported in publication PMC4227774, “RppH-dependent pyrophosphohydrolysis of mRNAs is regulated by direct interaction with DapF in Escherichia coli” (Nucleic Acids Research, 2014).
These are yes or no findings as the source states them, for the method shown. For some of these results: Binding seen in cells or lysates may run through a third protein. Some entries that bind do so weakly or less than the wild type. For some of these results: Sequences can lack the tags named with a protein.

T1: His6-RppH (6His-tagged form of RppH, RNA pyrophosphohydrolase) (E. coli) (UniProt P0A776)
T1 sequence: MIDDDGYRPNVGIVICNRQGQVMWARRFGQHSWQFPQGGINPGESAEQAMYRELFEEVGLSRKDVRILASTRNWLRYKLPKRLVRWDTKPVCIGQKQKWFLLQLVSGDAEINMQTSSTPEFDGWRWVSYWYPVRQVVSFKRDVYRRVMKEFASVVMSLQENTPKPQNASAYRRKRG

T2: His-enzyme IIA^Ntr (E. coli) (UniProt P69829)
T2 sequence: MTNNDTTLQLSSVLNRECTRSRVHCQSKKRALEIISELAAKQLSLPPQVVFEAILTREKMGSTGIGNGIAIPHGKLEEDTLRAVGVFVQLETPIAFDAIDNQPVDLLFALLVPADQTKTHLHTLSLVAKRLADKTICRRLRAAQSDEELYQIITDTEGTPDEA

T3: T25-RppH (E. coli) (UniProt P0A776)
T3 sequence: T1 sequence

T4: His-RppH co-expressed with DapF from pDuet-RD (E. coli) (UniProt P0A776)
T4 sequence: T1 sequence

T5: His6-DapF (DapF with an N-terminal 6His-tag) (E. coli) (UniProt P0A6K1)
T5 sequence: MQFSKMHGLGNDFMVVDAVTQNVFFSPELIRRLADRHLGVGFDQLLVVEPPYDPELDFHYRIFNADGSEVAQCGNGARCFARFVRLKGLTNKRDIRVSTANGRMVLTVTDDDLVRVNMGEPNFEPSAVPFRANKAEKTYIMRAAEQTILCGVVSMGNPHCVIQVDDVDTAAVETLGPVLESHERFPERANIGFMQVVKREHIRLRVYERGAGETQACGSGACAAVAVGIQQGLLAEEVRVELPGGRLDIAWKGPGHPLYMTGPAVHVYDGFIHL

B1: DapF, diaminopimelate (DAP) epimerase, endogenous in MG1655 crude extract (enzyme, UniProt P0A6K1 1-274)
chain: T5 sequence
B2: DapF, diaminopimelate (DAP) epimerase, purified (enzyme, E. coli, UniProt P0A6K1 1-274, looked up)
chain: T5 sequence
notes: DapF, diaminopimelate epimerase, E. coli; The text sets 'purified DapF' (untagged) against His-DapF in the pull-downs; also called purified DapF; untagged DapF; source: purified
B3: T18-DapF (enzyme, UniProt P0A6K1 1-274)
chain: T5 sequence
B4: DapF co-expressed with His-RppH from pDuet-RD (enzyme, E. coli, UniProt P0A6K1 1-274, looked up)
chain: T5 sequence
notes: DapF, diaminopimelate epimerase, E. coli; source: E. coli ER2566 harboring pDuet-RD (from the pET-duet vector), in crude extract
B5: RppH, RNA pyrophosphohydrolase, purified (enzyme, E. coli, UniProt P0A776 1-176, looked up)
chain: T1 sequence
notes: RppH (NudH), RNA pyrophosphohydrolase, E. coli; Named only 'RppH' in gel filtration, SPR and the activity assays; The methods describe only the purification of His-RppH, so this may be the same protein as m1; also called purified RppH; NudH; source: purified
B6: RppH, endogenous in wild-type MG1655 crude extract (enzyme, UniProt P0A776 1-176)
chain: T1 sequence
B7: RppH in the crude extract of RppH-overexpressing cells (enzyme, UniProt P0A776 1-176)
chain: T1 sequence

Legend:
[1] = molecular target: T1, His6-RppH (6His-tagged form of RppH, RNA pyrophosphohydrolase) (E. coli); test: pull-down; ligand fishing: 500 μg purified His-RppH as bait mixed with MG1655 crude extract, TALON metal affinity resin, 50 mM Tris-HCl pH 8.0, 300 mM NaCl, eluted with 200 mM imidazole; SDS-PAGE with Coomassie, band identified by peptide mapping of tryptic digests; only the target purified
[2] = molecular target: T2, His-enzyme IIA^Ntr (E. coli); test: pull-down; purified DapF mixed with varying amounts of His-RppH or the control protein His-enzyme IIA^Ntr on the metal affinity resin; band intensities on gel; both purified
T25-RppH (E. coli) = molecular target: T3, T25-RppH (E. coli); test: two-hybrid; bacterial two-hybrid (BACTH), reconstitution of B. pertussis adenylyl cyclase from T18 and T25 in cya-deficient E. coli BTH101; colour on LB X-gal plates, 30°C overnight
[3] = molecular target: T4, His-RppH co-expressed with DapF from pDuet-RD (E. coli); test: pull-down; DapF and His-RppH co-expressed from pDuet-RD in E. coli ER2566; crude extract loaded onto a TALON metal affinity column; SDS-PAGE
[4] = molecular target: B5; test: SEC; Superose 12 10/300 GL, 50 mM Tris-HCl pH 8.0, 100 mM NaCl, room temperature, 0.5 ml/min; 50 μg RppH, 400 μg DapF (or 100 μg DapF(C73&217A)) or both in 250 μl, incubated 10 min on ice; fractions on SDS-PAGE; both purified
[5] = molecular target: T5, His6-DapF (DapF with an N-terminal 6His-tag) (E. coli); test: pull-down; purified His-DapF (or untagged DapF as control) mixed with crude extract of wild-type MG1655 or of RppH-overexpressing cells, TALON metal affinity resin; only the target purified

Binder: B1
binding [1]: binds

Binder: B2
binding [2]: no binding

Binder: B3
binding (T25-RppH (E. coli)): binds

Binder: B4
binding [3]: binds

Binder: B5
binding [4]: no binding (tested: 50 μg in 250 μl)

Binder: B6
binding [5]: binds

Binder: B7
binding [5]: binds
